# Data as given in ChEMBL document CHEMBL4888484, “Replenishing the malaria drug discovery pipeline: Screening and hit evaluation of the MMV Hit Generation Library 1 (HGL1) against asexual blood stage Plasmodium falciparum ,using a nano luciferase reporter read-out” (2022).
# About 540 (0.36%) of roughly 150,000 compounds showed an effect of 50% or more. Some of the results follow.
# Test system: Plasmodium falciparum
# Test: Primary screen in NF54 nanoGlo assay, in single point, at 2uM, 72h; a lower Z score goes with more inhibition
# Type: functional, Erythrocyte
# Conditions: timepoint 72 hour
Structure (SMILES),% Inhibition [%],Z score
CC(OC1CCCCC1)C(=O)NOC1CCCCO1 (configuration not stated),-2,0.2
Cc1cc(C(=O)NCC2CCN(c3cnccn3)CC2)c(C)o1,-7,1.1
O=C(N[C@H]1CCc2nccn2C1)c1cc2c(s1)CCC2,-3,0.49
CN(Cc1ccccc1)S(=O)(=O)c1ccc(-c2ccc(=O)[nH]n2)o1,2,-0.24
CN1CC[C@@H](C(=O)NCCc2cc(C(F)(F)F)ccn2)S1(=O)=O,-7,1.02
O=C(Nc1ccccc1)C1CCN(Cc2cccc3nccn23)CC1,-6,0.63
Cc1cccc(CNC[C@H]2Cn3c(-c4ccc(Cl)cc4)cnc3CO2)n1,8,-0.92
CC(C)n1c([C@H]2CCN(C(=O)Cc3ccccc3F)C2)nc2ccncc21,-9,0.86
Cc1n[nH]c([C@@H]2CCN(C(=O)C3CCOCC3)CCN2Cc2cccnc2)n1,-9,1.32
C[C@@H]1[C@@H](c2cccc(Cl)c2)OCCN1C(=O)NC1CC2CCCCN2C1=O (some centres not stated),-3,0.45
O=C(Nc1cc(S(=O)(=O)N2CCCC2)ccc1O)c1n[nH]c2ccccc12,-18,2.81
Cc1nsc(NCCCn2ccnc2C)c1C#N,-4,0.48
Cc1noc([C@@H]2CN(C(=O)C3CCC3)CCCN2C(=O)c2ccccc2)n1,-7,1.37
COc1ccc(C2CC(=O)N(c3ccc4c(c3)OCCO4)C(=O)C2)cc1,-11,1.95
Cc1ccc2[nH]cc([C@H](c3ccccc3)c3ccc(C)s3)c2c1,-7,1.06
COc1ccc(CN2C(=O)N[C@@H](CC(=O)N3CCOCC3)C2=O)cc1,-6,0.82
COc1ccc(OC)c(NC(=O)CN2C(=O)COc3ccc(C(=O)N4CCCC4)cc32)c1,0,-0.05
CCN(CC)C(=O)c1cnc2snc(C)c2c1N1CCC(C(=O)Nc2c(C)cc(C)cc2C)CC1,54,-10.3
CCOC(=O)Cc1csc(NC(=O)c2cc(-c3csc(C)n3)c[nH]2)n1,-5,0.86
COc1c(F)c(F)c(CN2CCOC2=O)c(F)c1F,-14,1.77
COc1ccccc1NC(=O)COc1ccc(-c2ccccc2)cc1CN1CCC(c2nncn2C)CC1,-12,1.31

Structure (SMILES),% Inhibition [%],Z score
C=C(C)C[C@H](C)C(=O)Nc1cnn(C)c1Cl,-17,2.14
O=C(Cn1cncn1)N1CCC(c2nnc(C(F)(F)F)o2)CC1,-10,1.18
Cc1cccc(C(=O)N2CCC[C@H]2C(=O)Nc2ccc(Cl)cc2Cl)n1,23,-2.92
COCCN(CCNC(=O)N1CCCCCC1)C1CC1,-6,0.54
CCCC(=O)Nc1ccc(C(F)(F)F)cc1Cl,0,0.06
Cc1nnc(-c2ccccc2NC(=O)C(=O)NC2CCCCC2)o1,-4,0.51
Cc1nonc1[C@@H]1CCCN1C(=O)CCc1c(C)nn(C)c1C,3,-0.46
C=CCN(Cc1nc(-c2cc(OC)c3c(c2)OCO3)oc1C)[C@H]1CCS(=O)(=O)C1,0,-0.05
CC(C)[C@H](NCc1ccc(C#N)cc1)C1(CO)CCC1,-5,1.04
Cc1cccc(CNC[C@H](NC(=O)OC(C)(C)C)C(C)C)c1,10,-1.5
O=C1COc2ncc(C(=O)N3CC[C@H](c4nc(C5CC5)no4)C3)cc2N1,2,-0.34
COc1ccccc1Oc1cc(C#N)c(C#N)cc1N1CCOCC1,20,-2.48
CC(=O)Nc1ccc(NC(=O)Cn2ccc3ccn(Cc4ccccc4)c3c2=O)cc1,-12,1.47
CC1(C)CC[C@H](N2CCCN(CC(=O)N3CCCC3)CC2)C1,-17,2.69
Fc1ccc(-n2cc(-c3noc(-c4ccccc4)n3)nn2)cc1,-17,3.4
O=C(NC1CCCCCCC1)[C@H]1CCCN(c2ccc3nncn3n2)C1,-24,2.11
O=C(NCCCN1CCN(c2cccc(Cl)c2)CC1)[C@H]1CCCN(c2nc3ccccc3[nH]2)C1,7,-1.19
C#CC(NC(=O)N1CCCC1c1nc(C(=O)OC)c(C)s1)C(C)C (configuration not stated),-18,2.41
O=C(NCc1cccnc1)[C@@H]1C[C@H](NCc2ccccc2F)CN1Cc1ccccc1Cl,-5,0.96
N#Cc1ccc(NCc2nccn2CCCc2ccccc2)nc1,-11,1.08
